Data reported in PubChem BioAssay (NCI).
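Values below derive from 48-hour exposures of cells grown in 96-well plates, with endpoints linearly interpolated between the two concentrations bracketing the appropriate inhibition level. GI50 = concentration required for 50% inhibition of growth. TGI: concentration producing complete growth inhibition.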

System: NCI-H322M lung
Test: NCI anticancer screen, dose series, 48 h

| SMILES | GI50 [µM] | TGI [µM] |
| --- | --- | --- |
| Cc1cc2nc3c4cc(Cl)ccc4n(CC(=O)NCCN(C)C)c3nc2cc1C | 13.1 | 26 |
| Cn1cc(-c2nnc(N)nc2-c2c[nH]c3ccc(F)cc23)c2cc(Br)ccc21 | 3.72 | 15.2 |
